Results taken from PubChem BioAssay AID902 (National Center for Advancing Translational Sciences (NCATS), 2007).
Hit rate of the full screen: of about 130,000 compounds, about 1,900 (1.5%) were called active. Inconclusive means that the source gave no clear call. Such entries were picked first, then a sample of the others. Calls follow the shape of the dose curve; as a rule, active = well fitted cell-killing curve with a large enough effect; inconclusive = small, poorly fitted or top-dose-only effect; inactive = no such curve, though single readings can be large or run the other way. Potencies of inconclusive entries are doubtful fits and often do not repeat.

Test: qHTS Screen for Compounds that Selectively Target Cancer Cells with p53 Mutations: Cytotoxicity of p53ts Cells at the Nonpermissive Temperature; also: nearly all actives have a fitted effect of over 55% in size
Conditions: H1299-p53A138V viability at 39C, ATP luminescence, 24 h; activity change, negative = cell killing: at 46.1 µM (top of the series)
% is scaled to controls: 0 for no effect and ±100 for the full control effect; potency is read from the fitted curve at half-maximal effect; tags tell the direction and shape of the fitted curve.

SMILES	activity change, negative = cell killing	Potency
Cc1c(NC(=O)c2ccc(-c3cccc([N+](=O)[O-])c3)o2)cccc1-c1nc2cc(Cl)ccc2o1	inactive: -12.9%	–
O=C(Nc1nc2c(s1)CCCC2)C1COc2ccccc2O1 (stereo unspecified)	–	inconclusive: 10 µM [cytotoxic, partial curve]
O=C(CN1C(=O)C(c2ccc(F)cc2)=NC12CCCCCC2)Nc1ccccc1Cl	inconclusive: -31.2% [cytotoxic]	–
Cc1ccc(C)c(NC(=O)Cn2cc(C(=O)c3ccco3)c3ccccc32)c1	–	inconclusive: 10 µM [cytotoxic, single point]
CC1=C(C(=O)Nc2ccccc2)C(c2cccnc2)n2nc(SCc3ccccc3Cl)nc2N1 (stereo unspecified)	inactive: -2.79%	–
Cc1cc(C2CCCCC2)n(O)c(=O)c1	–	inconclusive: 10 µM [cytotoxic, partial curve]
CCN1C(=O)/C(=C2\SC(N3CCCCC3)=NC2=O)c2ccccc21	–	inconclusive: 12.6 µM [cytotoxic, partial curve]
O=C(O)Cn1c(=O)oc2cc(S(=O)(=O)NC3CCCCC3)ccc21	inactive: 3.04%	–
COc1ccc(CCNC(=O)CCCn2c(=O)c3ccccc3n(CC(=O)Nc3cc(Cl)ccc3C)c2=O)cc1OC	–	active: 12.6 µM
COc1ccc(-c2nc(CSc3nncn4c3cc3occc34)c(C)o2)cc1	–	inconclusive: 31.6 µM [cytotoxic, single point]
O=C(Nc1cccc(OCc2cc(=O)n3c4c(sc3n2)CCCC4)c1)c1ccc(F)cc1	–	inconclusive: 10 µM [cytotoxic, partial curve, poor fit]
CCOC(=O)CNC(=O)CSc1nnc(-c2cccc(C)c2)n1-c1ccc(OC)cc1	–	inconclusive: 25.1 µM [cytotoxic, single point]
Cc1ccc2nc(-c3cc(NC(=O)/C=C/c4ccccc4)ccc3Cl)oc2c1	–	inconclusive: 12.6 µM [cytotoxic, partial curve]
COc1ccc(C(=O)Nc2ccc3nc(N4CCC(C)CC4)cc(C)c3c2)cc1	–	inconclusive: 11.2 µM [cytotoxic, partial curve]
Cc1ccc(NC(=O)Cn2c(=O)n(Cc3ccco3)c(=O)c3sc4ccccc4c32)cc1C	–	inconclusive: 3.98 µM [cytotoxic, partial curve]
COc1ccccc1CN1CC2(CCN(C(=O)c3cnccn3)CC2)C1	inactive: 3.71%	–
O=C(Nc1nnc(-c2ccccc2)o1)c1ccc(Cl)cc1	inactive: 1.64%	–
CCCCN(CCCC)S(=O)(=O)c1ccc2oc(C(=O)NCc3ccc(C)cc3)c(C)c2c1	–	inconclusive: 31.6 µM [cytotoxic, single point]
CCCCN1C(=O)C(O)(c2c[nH]c3ccccc23)c2cc(Br)ccc21 (stereo unspecified)	–	inconclusive: 20 µM [cytotoxic, single point]
CCn1c(=O)c(C(=O)Nc2ccc(C(C)=O)cc2)nc2ccccc21	–	active: 12.6 µM
O=C(O)c1cc2cc(Cl)ccc2[nH]1	inactive: -3.6%	–
C[C@]1(C(=O)NCc2cc(F)cc(C(F)(F)F)c2)C=C[C@@H](Cc2ccccc2)N1C(=O)c1ccccc1	inactive: 8.16%	–

SMILES	activity change, negative = cell killing	Potency
Cc1ccccc1Nc1c(-c2ccco2)nc2c(C)cccn12	–	inconclusive: 31.6 µM [cytotoxic, single point]
Cc1ccc(CS(=O)(=O)c2ncc(Cl)c(C(=O)Nc3nc4ccc(C)cc4s3)n2)cc1	–	active: 12.6 µM
Cc1n[nH]c(C)c1S(=O)(=O)N(CC(=O)Nc1ccc(C(F)(F)F)cc1)c1ccc(C(C)C)cc1	–	inconclusive: 15.8 µM [cytotoxic, single point]
Cc1ccc(C)c(CN2C(=O)c3ccccc3S(=O)(=O)c3ccc(C(=O)N4CCN(c5ccccc5)CC4)cc32)c1	inactive: 4.57%	–
C#CCSc1nc2sc3c(c2c(=O)n1Cc1ccccc1)CCCC3	–	inconclusive: 1.26 µM [cytotoxic, partial curve]
O=C(CC(=O)c1cc(Cl)ccc1O)c1ccccc1	–	inconclusive: 25.1 µM [cytotoxic, single point]
N#Cc1nc(-c2cccc3ccccc23)oc1NCCN1CCOCC1	–	inconclusive: 20 µM [cytotoxic, single point]
COc1cccc(-c2nc(SCC(=O)Nc3ccc4c(c3)OCCO4)c(-c3ccccc3)[nH]2)c1	–	inconclusive: 25.1 µM [cytotoxic, single point]
Cn1cccc1C(=O)N1CCC2(CC1)CCN(c1ccccc1)CC2	–	inconclusive: 10 µM [cytotoxic, single point]
c1ccc(Cc2nnc3sc(-c4cccs4)nn23)cc1	inactive: 11.6%	–
Nc1nonc1-c1nc2ccccc2n1Cc1c(Cl)cccc1Cl	–	inconclusive: 31.6 µM [cytotoxic, single point]
O=C(/C=C\C=C/c1ccc2c(c1)OCO2)N1CCCCC1	–	inconclusive: 10 µM [cytotoxic, partial curve]
O=C(CSc1ccccc1C(=O)NCc1ccccc1)NC1CCCCCCC1	inactive: -9.63%	–
CCCn1nnc(NC(=O)c2ccc(Cl)cc2Cl)n1	–	inconclusive: 25.1 µM [cytotoxic, single point]
Cc1cccc(CNc2nc(-c3c(C)noc3C)nc3ccccc23)c1	–	inconclusive: 31.6 µM [cytotoxic, single point]
COc1ccc(-n2cc(C(=O)N(C)c3cc(C)ccc3OC)c3ccccc3c2=O)cc1	–	inconclusive: 6.31 µM [cytotoxic, single point]
CN(C)CCN(Cc1ccccc1)S(=O)(=O)c1ccc(-c2cc(C(F)(F)F)on2)s1	–	inconclusive: 6.31 µM [cytotoxic, partial curve, poor fit]
COc1cc(C(=O)OCC(=O)Nc2cc(C)on2)ccc1OCc1ccccc1Cl	–	inconclusive: 12.6 µM [cytotoxic, single point]
O=C(C1CCC(C(=O)N2CCc3ccccc32)CC1)N1CCc2ccccc21 (stereo unspecified)	inactive: 14.1%	–
Cc1ccc(NC2=C(NC(=O)c3ccccc3)C(=O)c3ccccc3C2=O)cc1Cl	–	inconclusive: 35.5 µM [cytotoxic, single point]
Brc1ccc(-c2noc(-c3ccccc3)n2)o1	–	inconclusive: 12.6 µM [cytotoxic, partial curve]
Cc1cc(NC(=O)c2oc3ccccc3c2C)ccc1-n1cnnn1	–	inconclusive: 12.6 µM [cytotoxic, partial curve]

SMILES	activity change, negative = cell killing	Potency
CCCCOc1ccc(C(=O)Nc2ccc(S(=O)(=O)Nc3nc(C)cc(C)n3)cc2)cc1	–	inconclusive: 15.8 µM [cytotoxic, single point]
Cc1nc2ccccc2n1CCc1nc2c3ccccc3nc(SCC(=O)Nc3cccc(C(F)(F)F)c3)n2n1	–	inconclusive: 20 µM [cytotoxic, partial curve, poor fit]
CC(C)Cn1c(N)c(C(=O)CSc2ccc3c(c2)OCCO3)c(=O)n(C)c1=O	inactive: -6.92%	–
CCOc1ccc(N2CC(c3nc4ccccc4n3CCCOc3ccccc3OC)CC2=O)cc1 (stereo unspecified)	–	inconclusive: 20 µM [cytotoxic, partial curve]
COc1cc(NC(=O)c2ccco2)c(OC)cc1NC(=O)CSc1nnc(-c2cccs2)n1C	–	inconclusive: 31.6 µM [cytotoxic, single point]
CCc1ccc2nc(NC(=O)c3cc(C)on3)sc2c1	–	inconclusive: 15.8 µM [cytotoxic, single point]
COc1ccc(Cl)cc1NC(=O)CSC1=Nc2ccccc2C2=NC(CCC(=O)NCc3ccc(F)cc3)C(=O)N12 (stereo unspecified)	inactive: -26.7%	–
Cc1ccc(S(=O)(=O)Cn2nnnc2C(CC(C)C)N2CCN(c3ccc(F)cc3)CC2)cc1 (stereo unspecified)	inactive: -4.11%	–
COc1ccc(-c2nc(C(N)=O)c3[nH]c(=O)n(-c4cccc(Cl)c4)c3n2)cc1OC	–	inconclusive: 31.6 µM [cytotoxic, single point]
COc1cccc(-c2nc(CS(=O)(=O)CC(=O)NCCc3ccc(OC)cc3OC)c(C)o2)c1	–	inconclusive: 10 µM [cytotoxic, single point]
CCC(CC)(CC(=O)Nc1cccc(/C=C/c2nc(C3CCC3)cs2)c1)C(=O)O	–	inconclusive: 15.8 µM [cytotoxic, partial curve]
CC(C)c1ccc(C2=CC(c3cccc(Cl)c3)n3c(nc4ccccc43)N2)cc1 (stereo unspecified)	–	inconclusive: 25.1 µM [cytotoxic, single point]
COc1ccc(C)cc1NC(=O)c1c2c(nc3ccccc13)C(=O)N(C1CCCCC1)C2	–	active: 10 µM
Cc1ccccc1OCC(=O)Nc1nnc(S(=O)(=O)N2CCCC2)s1	–	inconclusive: 3.16 µM [cytotoxic, partial curve, poor fit]
CC(C)Oc1ccc(CNC(=O)c2ccc3c(c2)nc2n3CCCCC2)cc1	–	inconclusive: 35.5 µM [cytotoxic, single point]
Cc1c(C(=O)O)cnc2cc(-c3ccc(Cl)cc3)nn12	–	inconclusive: 10 µM [cytotoxic, partial curve]
Cc1cc(=O)n2nc(N3CCC(C(=O)Nc4c(C)cccc4C)CC3)sc2n1	inactive: -21.3%	–
CCCn1c(C)cc(C(=O)COc2ncnc3sccc23)c1C	–	inconclusive: 20 µM [cytotoxic, partial curve]
Cn1c(-c2ccc3c(c2)OCO3)cnc1NCc1ccccc1	–	inconclusive: 10 µM [cytotoxic, partial curve]
CCc1cccc(NC(=O)Cn2c(=O)n(CCC(=O)NCc3ccccc3Cl)c(=O)c3sccc32)c1	–	active: 12.6 µM
CCOc1ccc(-c2cc(C(=O)NC(C)c3ccccc3)c3ccccc3n2)cc1 (stereo unspecified)	–	inconclusive: 25.1 µM [cytotoxic, single point]
COc1ccc(-c2cn3cccnc3n2)cc1NC(=O)Nc1cc(C)ccc1C	–	inconclusive: 10 µM [cytotoxic, single point]
